± gives the standard deviation of the averaged measurements. The full ranking holds about 4,000 sequences; the median of “arbitrary fluorescence units” is about 830, and the highest 2% start at about 6,500. Most of the strongest results are missing from this list.
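Further: Full-length recombinant human RUNX1 bound to double-stranded DNA microarray spots, detected with an Alexa488-labelled secondary antibody after the anti-RUNX1 primary, read as scanned spot fluorescence.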

The target of the test is RUNX1 (UniProt Q01196). Briefly: RUNX1 binding intensity (PBM fluorescence), RUNX1 alone (arbitrary fluorescence units); higher = stronger binding. The note with it: RUNX1 concentration 2 nM; ETS1 concentration 0 nM. The method, then: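 gcPBM on 36-bp genomic-derived probes (partner site mutated) containing one RUNX1 site and no ETS1 site. Recombinant human RUNX1 (2 nM) was incubated alone or with ETS1 (25 nM) and detected by anti-RUNX1 antibody fluorescence. Values are medians over 4 replicate spots (not normalised). The probes sit in constant array flanks that are not printed.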
UniProt Q01196, sequence (Q01196 whole entry): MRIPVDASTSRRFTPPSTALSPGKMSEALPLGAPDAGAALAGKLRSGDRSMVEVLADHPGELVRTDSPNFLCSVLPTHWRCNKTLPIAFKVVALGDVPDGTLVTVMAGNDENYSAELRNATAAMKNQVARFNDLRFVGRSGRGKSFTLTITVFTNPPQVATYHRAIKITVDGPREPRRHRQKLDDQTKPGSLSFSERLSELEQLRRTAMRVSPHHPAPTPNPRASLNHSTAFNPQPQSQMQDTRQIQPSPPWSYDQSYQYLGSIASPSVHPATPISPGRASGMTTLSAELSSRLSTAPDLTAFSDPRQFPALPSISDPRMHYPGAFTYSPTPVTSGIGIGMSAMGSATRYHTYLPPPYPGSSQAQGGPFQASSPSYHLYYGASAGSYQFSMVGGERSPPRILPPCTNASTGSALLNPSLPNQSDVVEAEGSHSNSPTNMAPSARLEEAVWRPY
In turn, TACATAGCCTGCATTCTCAGAAAAACCACAGGCTAG returned an RUNX1 binding intensity of 1000.

Turning to GACCACCTCCTTTCTGTGTTTTGTGGTTTCACAACT, the RUNX1 binding intensity came to 2680.

AGCGAGCGGTGGCTGTGCCAGGCGTTCCATCTGGCA showed an RUNX1 binding intensity of 664.

In turn, AAGCCATTTTGCGGCTAAAGCCTTTCAGCCCTTAAA yielded an RUNX1 binding intensity of 1030.

The sequence AACTGGGCTGAAAGAACGGCTAACCGCAAGCTGCCG came in with an RUNX1 binding intensity of 13200.

TTTACAGGCAATTACAGGGGTTAAACCAAACCACAA yielded an RUNX1 binding intensity of 1230.

In turn, TATGTCTGAATTCCGCTCGTGGTTTCCATCTTAGCC had an RUNX1 binding intensity of 856.

For the sequence GCAGATCTGGTAACCACCATCTTTCAGGCTCCCTCG, the RUNX1 binding intensity is 1100.

For TTGTGGGTGTGTCTCTTTCGGTCTTACGTCCTAACA, the RUNX1 binding intensity was found to be 854.

Regarding TCAAAGAGGCAGTGGTTTATAATTGCCTCTTGACTG, the RUNX1 binding intensity amounted to 738.

For CACCTCCTCTGTGACTGCAGGTTTCCAACCACAAGC, the RUNX1 binding intensity came to 986.

The sequence CTCATGGGCAATGTAGTTTCTAAACCGCGGGCGCCC came in with an RUNX1 binding intensity of 814.

Sequence CTGGCTACAGTAAAAACAAAGTCAAACCACAGCACT registered an RUNX1 binding intensity of 785.

ATGGAAAGGCAGTCGGTGGGAAACCGCCTCAGCGGT showed an RUNX1 binding intensity of 696.

As for GGTCCATGAAGACGTCAAGGGCTTGGTTTTGTAAAC, the RUNX1 binding intensity was found to be 709.

In turn, GAAGCTCTTGTGGTTCCTGGCGGCATCGTGTCCCTC returned an RUNX1 binding intensity of 990 ± 130.

Sequence GTACTGCTTGTGGGAGAGCCCCACAGGCAATCCAGA yielded an RUNX1 binding intensity of 805.

As to CGATATAACCACCCCTAAGCTAAACTACATGCTGGT, the RUNX1 binding intensity is 1190.

In turn, GAGTCGTCACCGCACACTTGGTCCCGGGCTACATTT registered an RUNX1 binding intensity of 1020.

TCTTGCTGACCGCCCCTCCCAGTTCCCACTGGGCTG: the RUNX1 binding intensity is 1010.

CGGCGGCCCCTGCGGCTTCAGGCTTGCTGGCCGTCA came in with an RUNX1 binding intensity of 804.

With CTGACTTGTTGTGGTCTCTGCCACTTGCTGAGGTGT, the RUNX1 binding intensity turned out to be 918.

For ACTGCGGGCGTTGCTAGCATGAAGGCCGAAGCGCGC, the RUNX1 binding intensity turned out to be 695.

GCAGATACCACAGACTCTCTCCTTTGCTGCTGAATA registered an RUNX1 binding intensity of 1280.

For the sequence ACTGGGGTTGCGGCGTCTAAGTGTTTCAGGTGGATT, the RUNX1 binding intensity turned out to be 833.

Take GTTGTCCGTGACCACCAGCCCCAAAGGAATTGCCCT: the RUNX1 binding intensity is 1030.

GTAATCACAGGCCGCAGAGTTCCAGGCTGCTCCGTG gave an RUNX1 binding intensity of 771.

CGCCGAACTTTCGGCAGTAAATTCCGTGGTTTCCCT showed an RUNX1 binding intensity of 882.

ACCCCAGCCTGATCCTCTGCTTATCTCCCACATGCA: the RUNX1 binding intensity amounted to 1200.

Sequence CCGCCAACCGCAGGGCCGCGACACGGACGGCAAGCA showed an RUNX1 binding intensity of 3530.

CAGCAATACCACAAGCTGTTTAAGGACGTTCCCTTG: the RUNX1 binding intensity was 1560.

With TTGAAAAGGACGTTCATTTGTACTGAGGTGGTTTTA, the RUNX1 binding intensity turned out to be 706.

In turn, TGGCTGGAATCTCCGGACTGAAAAACCGCTGTCCTA showed an RUNX1 binding intensity of 761.

For the sequence GCGGCTCTGAGGTACCGCCAGCGGAATCGGGCAGAG, the RUNX1 binding intensity was determined as 714.

As for AGCTAGGACAGCATGTGAAAACCACACTGACAAAGT, the RUNX1 binding intensity is 922.

Consider GAACACGGAGACACTGAGCTTTTACTTTGACCACAC, for which the RUNX1 binding intensity was determined as 858.

With GCCACTGCCTGGAAAACAGTAATTACCACACGTCTC, the RUNX1 binding intensity is 990.

GGTGGACCTGTGGTTTGCAACACAGAAAGAGGCGGC yielded an RUNX1 binding intensity of 1290.

GTGACCACTGCCTAGTTACTGCCAGCTGAACGAAGG registered an RUNX1 binding intensity of 729.

The sequence GGTGGACCTGTGGTTTGCAACACAGAAAGAGGTGGC had an RUNX1 binding intensity of 1580.

Consider CTCAGCCCACCGCTGCGCGGCCGAAAGTCGGAGGTT, for which the RUNX1 binding intensity is 760.

The sequence AGTTTCTTCTTTCAGGTGGGTTTGTGGTCTTGCTGA gave an RUNX1 binding intensity of 1040.

As for CCAGACCCGGCTGAACTACCGTGCCCACAAGGCAGC, the RUNX1 binding intensity was 820.

For GACAGAGGCAACTAGGTGTGACAACCACAAACAGCT, the RUNX1 binding intensity was found to be 921.

Sequence AGATCTTATAAGCCGCACAGGCCGTAAGGAAAAGGG returned an RUNX1 binding intensity of 716.

In turn, GTCTTACTGCCTGTCCCCGCCCACCGCGACTGTCTT registered an RUNX1 binding intensity of 1470.

GTTCATCCAGGCAACCCCAACCCAGTGCCGCAGTAT registered an RUNX1 binding intensity of 888.

In turn, CAGGAGAACCCACAATGCACCGAAACTGCCGCCCCC showed an RUNX1 binding intensity of 1230.

GTCCCTGTTTCATCCCTCAGCTCCCGCAACCTCCGG returned an RUNX1 binding intensity of 1900.

In the case of GCGGCGAACCTGACGCCCCAACCACCCGCCCCCCAC, the RUNX1 binding intensity came to 1020.

In turn, AGACTCCATACGCCATGTTGGATGCCGCAGATTCGC came in with an RUNX1 binding intensity of 781.

ATGGGACGAAGAGACAGAGGCCTGACCACTAAGTGG returned an RUNX1 binding intensity of 676.

As for TCCCGGCGTTCTTCAGCTGGCTCAGCCGCAAGTACC, the RUNX1 binding intensity was found to be 772.

As for AGGCCGTGCAGCAAATGAGACCCACAGCCACGTCAC, the RUNX1 binding intensity was found to be 787.

Sequence GGGGACGGCCCCACAGCTCCCGTACGCCACGGCCAG displayed an RUNX1 binding intensity of 805.

GCGCAGAGGACCGCGGCGACCGTAAAAGCAAGGCAG returned an RUNX1 binding intensity of 705.

GAAATTTGCGCTTTCTTTCTGCAGCAGGAACCGCGG gave an RUNX1 binding intensity of 683.

As to GAGGGGTGGGCCGCAGGCGCCGAACGTGACGTAAGC, the RUNX1 binding intensity was found to be 692.

GATGTGGGTAAGAGAAGCAGGCACACGATGCTGCCC had an RUNX1 binding intensity of 714.

The sequence GGAGGAGGTGACACCCACCCACTGCCCCCGCAAGGT came in with an RUNX1 binding intensity of 804.

GGACCCACAGCCGTGTGGGCAGCCTCAGAATGAGCT yielded an RUNX1 binding intensity of 743.

Sequence GGGTTGGTGGTTATCAGCGGGGGGAGGTAGGAGGTG showed an RUNX1 binding intensity of 1140.

GGGGGGGTGCGGTCCTGGTCGGGAGGAGGTGGAGAG returned an RUNX1 binding intensity of 869.

AAGGCAAACAGCAAATCATAACCACAAACCAGGAAC: the RUNX1 binding intensity amounted to 1880.

In the case of GCCTCCTCACCGCAGTGAGCAGATCCCCTTGGGTTG, the RUNX1 binding intensity came to 2170.

In turn, ACACCACTCATGAAGACAAAGCCACACCTCACACCG yielded an RUNX1 binding intensity of 1260.

As to CCCGAAAACTCAACTGCCCACTGCTGCGGCCGCCAT, the RUNX1 binding intensity is 974.

Consider GCACACACACAGCCTCCCGGCCCGGCCGCAGCCGCT, for which the RUNX1 binding intensity was determined as 839.

In turn, GGGGCACGAAACAGCGTCCTGCGCGGGTAGCCCCTG returned an RUNX1 binding intensity of 664.

AGCACCCCCTTGCGGTGTCTGGAGCAAGCGGCGCGG showed an RUNX1 binding intensity of 826.

Sequence ACACGCACCATCTCCCGACTTTCGCGGTGTCCCAGG had an RUNX1 binding intensity of 957.

TCGCTCCCTGCTCCACTTCTCGGCGCCCACATCTCC: the RUNX1 binding intensity came out at 1540.

With TTTCACTCCCGGCATGTTTTTCACCCACAGGGATAT, the RUNX1 binding intensity was 1100.

In the case of TGCGCGGCCGCAGGGGCCAGACCCTGACGGCTCCAG, the RUNX1 binding intensity was 734.

The sequence TTGCTAGAGGAGGCGCTGCCCCGGCAGCCGCAGCCA came in with an RUNX1 binding intensity of 777.

Turning to TCACGTGACCGCGCTCCGGTAACTGAAGAAACAAGA, the RUNX1 binding intensity came to 909.

Consider AGAAAGAAACCGCGAGGCAAACGGCAGTATATAGGA, for which the RUNX1 binding intensity came to 2030.

On to ATATAGAATCTTACCACAATCACTTGCTGAGTCTAT, for which the RUNX1 binding intensity is 1370.

The sequence CAAGCACATTACGTAAGAGGCTGACCGCAAATACGA had an RUNX1 binding intensity of 4800.

With GTTTAACATGAAACCCTGCAGACCACAGGTTCTGTC, the RUNX1 binding intensity worked out at 911.
